Laboratory results: the GPR68 mutational scans of Howard et al. (2025)

B1: GPR68, Q15743 (parent)
chain: MGNITADNSSMSCTIDHTIHQTLAPVVYVTVLVVGFPANCLSLYFGYLQIKARNELGVYLCNLTVADLFYICSLPFWLQYVLQHDNWSHGDLSCQVCGILLYENIYISVGFLCCISVDRYLAVAHPFRFHQFRTLKAAVGVSVVIWAKELLTSIYFLMHEEVIEDENQHRVCFEHYPIQAWQRAINYYRFLVGFLFPICLLLASYQGILRAVRRSHGTQKSRKDQIQRLVLSTVVIFLACFLPYHVLLLVRSVWEASCDFAKGVFNAYHFSLLLTSFNCVADPVLYCFVSETTHRDLARLRGACLAFLTCSRTGRAREAYPLGAPEASGKSGAQGEEPELLTKLHPAFQTPNSPGSGGFPTGRLA

Assays:
[1] = variants of: B1; test: cAMP reporter score (Enrich2 score, wild type = 0); higher = more signal; HEK293T, FACS bins
[2] = variants of: B1; test: surface expression score (Enrich2 score, wild type = 0); higher = more signal; HEK293T, FACS bins

Row | Variant | cAMP reporter score ([1]; pH 5.5) | cAMP reporter score ([1]; pH 6, modulator: ogerin) | cAMP reporter score ([1]; pH 6.5, modulator: ogerin) | surface expression score [2] | cAMP reporter score ([1]; pH 6)
1 | L195H | -1.37 | -1.5 | -1.36 | -2.5 | –
2 | L195I | -0.08 | 0.707 | 0.648 | -0.352 | 0.397
3 | L195K | -0.576 | -1.27 | -2.16 | -2.56 | -0.352
4 | L195M | 1.61 | 1.56 | 0.793 | -0.101 | 0.534
5 | L195N | -1.98 | -0.992 | -0.907 | -1.66 | –
6 | L195P | -2.85 | -0.616 | -0.469 | – | -0.309
7 | L195Q | -1.1 | -2.36 | – | -4.67 | –
8 | L195R | -0.851 | -2.36 | -2.56 | -2.48 | –
9 | L195S | 0.211 | -0.059 | -1.32 | -1.18 | -0.942
10 | L195T | 0.544 | 0.261 | -0.208 | -1.23 | -1.5
11 | L195V | 0.347 | 0.634 | 0.551 | 0.085 | 0.879
12 | L195W | -0.034 | -0.096 | -0.374 | -2.16 | –
13 | L195Y | -1.66 | -1.98 | -1.44 | -2.5 | -1.03
14 | L195_F196del | -1.35 | -0.854 | -1.48 | -2.82 | -0.845
15 | L195_F196insGS | -1.91 | – | -1.25 | -3.04 | -1.1
16 | F196A | -1.2 | -1.18 | -0.728 | -2.04 | -0.173
17 | F196C | -0.041 | -0.337 | -0.782 | -1.07 | -0.611
18 | F196D | -1.73 | – | -0.919 | -3.39 | -1.63
19 | F196G | -1.55 | -1.45 | -1.1 | -2.28 | -1.08
20 | F196H | -1.45 | -1.76 | 0.181 | -1.44 | –
21 | F196I | 1.34 | 0.547 | 1 | 1.3 | 2.66
22 | F196K | -0.405 | – | -0.174 | – | -2.92
23 | F196L | -0.347 | -0.803 | -0.549 | 0.623 | -0.176

Row | Variant | cAMP reporter score ([1]; pH 5.5) | cAMP reporter score ([1]; pH 6, modulator: ogerin) | cAMP reporter score ([1]; pH 6.5, modulator: ogerin) | surface expression score [2] | cAMP reporter score ([1]; pH 6)
24 | F196M | 0.611 | 0.877 | 0.636 | 0.66 | 0.968
25 | F196N | -0.409 | – | -0.438 | – | –
26 | F196P | 0.364 | 0.18 | – | -2.81 | 0.988
27 | F196R | -1.22 | – | -0.048 | -3.09 | -1.26
28 | F196S | -0.11 | -0.309 | -0.792 | -0.796 | -0.242
29 | F196T | -0.043 | 0.189 | -0.149 | -1.38 | –
30 | F196V | 1.99 | 1.99 | 3.38 | 2.52 | 3.52
31 | F196W | -0.2 | 0.043 | -0.692 | -2.09 | 0.247
32 | F196Y | -1.62 | -2.19 | -0.769 | – | –
33 | F196_I198del | -1.54 | – | -1.81 | -2.81 | –
34 | F196_P197insGSG | -1.2 | -1.61 | -1.52 | -3.03 | -1.52
35 | P197A | -0.812 | -1.23 | -1.24 | -2.32 | -0.615
36 | P197C | -1.61 | -0.783 | -1.06 | -1.84 | -1.07
37 | P197E | -0.403 | -0.677 | – | – | –
38 | P197F | -1.87 | -0.63 | -2.85 | -2.35 | –
39 | P197H | -1.06 | -1.46 | -0.954 | -1.77 | -0.187
40 | P197I | -2.23 | – | -0.793 | – | -1.98
41 | P197K | -1.45 | -1.82 | -0.691 | -2.24 | -1.26
42 | P197L | -0.406 | – | – | – | -0.533
43 | P197M | -1.19 | -1.9 | -2.19 | -1.74 | -1.53
44 | P197Q | -1.16 | -1.8 | -0.446 | -2.52 | –
45 | P197R | -1.25 | -1.37 | -1.43 | -1.71 | -0.804
46 | P197T | -1.81 | -1.57 | -1.3 | -2.37 | -1.19

Row | Variant | cAMP reporter score ([1]; pH 5.5) | cAMP reporter score ([1]; pH 6, modulator: ogerin) | cAMP reporter score ([1]; pH 6.5, modulator: ogerin) | surface expression score [2] | cAMP reporter score ([1]; pH 6)
47 | P197V | -1.56 | -1.73 | -0.702 | -2.39 | -1.72
48 | P197W | -0.608 | – | -0.439 | -1.67 | -0.317
49 | P197Y | -0.426 | – | -0.604 | – | -0.532
50 | P197_I198insGS | -1.66 | -2.07 | -1.59 | -2.91 | -1.48
51 | I198C | 1.16 | 1.55 | 3.2 | 0.764 | –
52 | I198D | -0.414 | – | -0.397 | – | -0.517
53 | I198E | -0.838 | – | -2.5 | -1.94 | 2.35
54 | I198F | 0.017 | 0.022 | -0.289 | 1.43 | -0.51
55 | I198H | -0.822 | -1.43 | -1.22 | -2.02 | -1.56
56 | I198L | -0.012 | 0.325 | -0.769 | 0.96 | 0.465
57 | I198M | 0.156 | -0.414 | -0.749 | 1.69 | -0.125
58 | I198N | -0.629 | -0.86 | -0.818 | -1.74 | –
59 | I198P | -0.426 | – | -0.434 | 0.737 | -0.232
60 | I198Q | -0.389 | 0.175 | – | -1.31 | –
61 | I198R | -0.962 | – | -1.07 | -1.74 | -1.99
62 | I198V | 0.791 | – | 3.42 | 1.15 | 3.5
63 | I198W | -0.161 | -0.94 | -0.525 | -0.702 | –
64 | I198Y | -0.313 | 1.41 | – | -0.379 | -0.373
65 | C199_L200insG | -1.36 | -0.88 | -1.35 | -2.11 | -1.23
66 | L200A | 0.012 | 0.214 | -2.21 | -0.371 | –
67 | L200D | -0.422 | – | -1.87 | -1.05 | -0.235
68 | L200E | -0.628 | – | -1.66 | – | –
69 | L200F | 0.799 | 0.031 | -0.223 | -0.009 | –

Scores whose standard error is large were omitted. The source holds two more conditions with little spread; they are left out. Read del as a deletion of the residues named and ins as an insertion between two positions. For some of these results: The concentration of ogerin is not given here.
